# Results from PubChem BioAssay AID651820 (National Center for Advancing Translational Sciences (NCATS), 2012).
# Where “and” joins values, the source holds several entries; their conditions need not be identical. Identical values can stand only once. Out of some 340,000 compounds screened, about 12,000 (3.5%) were called active. Inconclusive results, whose numbers are uncertain, are shown with a selection of clear calls. Calls follow the shape of the dose curve; as a rule, active = well fitted inhibition curve with a large enough effect; inconclusive = small, poorly fitted or top-dose-only effect, or another doubt; inactive = no such curve, though single readings can be large or run the other way. Potencies beside an inconclusive call are fits to weak or partial responses and may not hold up.
# Assay: qHTS Assay for Inhibitors of Hepatitis C Virus (HCV)
# Details: Huh7.5.1 HCVcc-Cre (HCVcc is cell-culture hepatitis C virus) infection, luciferase reporter, 44 h; activity change, negative = inhibition: at 41.8 µM (top of the series) unless noted
# Source text: Hepatitis C virus (HCV) infects about 200 million people in the world. Many infected people progress to chronic liver disease including cirrhosis with a risk of developing liver cancer. To date, there is no effective vaccine for hepatitis C. Current therapy based on interferon is only effective in about half of the patients and is associated with significant adverse effects. The fraction of people with HCV who can complete a successful treatment is estimated to be no more than 10 percent. Recent development of direct-acting antivirals against HCV, such as protease and polymerase inhibitors, is promising but still requires combination with peginterferon and ribavirin for maximal efficacy. In addition, these agents are associated with high rate of resistance and many have significant side effects. Due to the lack of a culture system for infectious HCV, the search for new HCV drugs has been greatly hampered. […] High-throughput screening (HTS) with an infectious HCV system would cover the complete spectrum of potentially druggable targets in all stages of HCV lifecycle, and would have more biological relevance than other cell-based assays. Moreover, targeting several key processes in the viral life cycle may not only increase antiviral efficacy; more importantly, it may also reduce the capacity of the virus to develop resistance to the compound. The goal of this project is to identify novel HCV inhibitors as new therapies for hepatitis C, using a highly sensitive and specific assay platform which is based on a HCV infectious cell culture system established in the laboratory and adapted for high-throughput HCV drug screen. NIH Chemical Genomics Center [NCGC] NIH Molecular Libraries Probe Centers Network [MLPCN] MLPCN Grant: MH095511 Assay Submitter (PI): Jake Liang, NIDDK
# The assay will start with plating 1,000 cells/well in 3 µL volume and culture for 4 h. Then 23 nL of compounds from the library collection will be added to each well, followed by adding 2.5 µL of HCVcc-Cre virus (~ 0.5 moi) and further cultured for 44 h before the luciferase assay. A volume of 4.5 µL luciferase substrates will be added to each well and the plates will be incubated at room temperature for 15 min. and then read for 15 sec. for the luciferase activity
# % is scaled to controls: 0 for no effect and ±100 for the full control effect; tags tell the direction and shape of the fitted curve.
SMILES,Potency,"activity change, negative = inhibition"
O=C(N/N=C/c1[nH]c2ccccc2c1Cl)c1cccc(Br)c1,active: 7.08 µM,
O=C(NC(=S)NNC(=O)c1cnccn1)c1ccc(F)cc1,active: 14.1 µM,
O=C(Nc1ccc(N2CCCC2)c(Cl)c1)c1ccco1,"inconclusive: 8.91 µM [inhibitor, partial curve]",
Cc1cc2oc(=O)cc(CN3CCCCC3)c2cc1C(C)C,"inconclusive: 3.55 µM [inhibitor, full curve, poor fit]",
Cc1cc(C)nc(Nc2cc([N+](=O)[O-])ccc2C)n1,"inconclusive: 31.6 µM [inhibitor, single point]",
CCOc1ccc(N2C(=O)CC(Cc3ccc(Br)cc3)C2=O)cc1 (configuration not stated),"inconclusive: 31.6 µM [inhibitor, single point]",
Cc1ccc(Nc2ccc(C(=O)N3CCCC3)cn2)c(C)c1,,inactive: 9.09%
COc1ccc(N=C2SC(C(=O)N3CCN(c4ccc([N+](=O)[O-])cc4)CC3)CC(=O)N2C)cc1 (configuration not stated),"inconclusive: 11.2 µM [inhibitor, partial curve]",
COc1cccc(C(=O)Nc2cc(OC)ccc2NC(=O)c2ccco2)c1,"inconclusive: 8.91 µM [inhibitor, partial curve]",
Cc1cccc(C(=O)N2CCNC(=O)C2CC(=O)Nc2cccc(Cl)c2)c1 (configuration not stated),,inactive: 7.79%
CCOc1cc(/C=C2\C(=O)ON=C2c2ccccc2)cc(Br)c1O,,inactive: -16.6%
COc1ccc(-c2csc3ncnc(Oc4cccc5ccc(C)nc45)c23)cc1,"inconclusive: 1.12 µM [inhibitor, full curve]",
Cc1cccc(Nc2nc(N3CCOCC3)nc(N3CCOCC3)n2)c1,"inconclusive: 10 µM [inhibitor, partial curve]",
CN1/C(=C\C(=O)COC(=O)c2ccccc2O)C(C)(C)c2ccccc21,"inconclusive: 14.1 µM [inhibitor, single point]",
NC(=O)c1cc([N+](=O)[O-])ccc1NCc1cccc2ccccc12,"inconclusive: 3.55 µM [inhibitor, full curve]",
COCCCNC(=O)CNC(=S)N(Cc1ccccc1)Cc1cccnc1,,inactive: 9.55%
COc1ccc(NC(=O)CN2CCN(CC(=O)Nc3ccccc3Cl)CC2)c(OC)c1,,inactive: -29.7%
Cc1onc(-c2ccccc2)c1C(=O)Nc1ccc(-c2nnc3n2CCCCC3)cc1,"inconclusive: 31.6 µM [inhibitor, single point]",
COc1ccc(/C=N/NC(=O)c2cccc([N+](=O)[O-])c2)cc1OS(=O)(=O)c1ccccc1,"inconclusive: 25.1 µM [inhibitor, single point]",
Cc1ccc(C(=O)Nc2ccc(-c3csc(C)n3)cc2)cc1,"inconclusive: 8.91 µM [inhibitor, partial curve, poor fit]",
COc1ccc([C@H]2CC(=O)C=C(c3cc(C)ccc3OC)C2)cc1,active: 7.94 µM,
O=C(CCc1ccc(S(=O)(=O)N2CCOCC2)cc1)Nc1ccc(N2CCOCC2)cc1,,inactive: -4.11%
CCCC(C)C(=O)Nc1nc(C)c(-c2csc(Nc3ccccc3OC)n2)s1 (configuration not stated),"inconclusive: 11.2 µM [inhibitor, partial curve]",
Cn1nnc(NC(=O)c2cccc(OCc3ccccc3)c2)n1,"inconclusive: 31.6 µM [inhibitor, single point]",

SMILES,Potency,"activity change, negative = inhibition"
COc1ccccc1NC(CC(=O)c1ccccc1)C(=O)OCC(=O)c1ccc(Br)cc1 (configuration not stated),,inactive: 0.0436%
CCc1ccccc1-n1c(SCC(=O)NC)nnc1-c1ccco1,,inactive: 0.535%
CCc1nnc(NC(=O)CSc2nc3c(C)cccc3[nH]2)s1,,inactive: 10.7%
CCSc1nnc(NC(=O)[C@H](C)NC(=O)c2ccccc2Cl)s1,,inactive: 6.65%
CCOc1ccc(C2NC(=O)NC(C)=C2C(=O)OCc2ccccc2)cc1 (configuration not stated),,inactive: -10.8%
O=C(CC1SC(=O)N(c2ccccc2)C1=O)Nc1ccc(Cl)cc1 (configuration not stated),,inactive: 18.5%
CC1CCCCC1NC(=O)COC(=O)c1c2c(nc3ccccc13)/C(=C/c1ccco1)CC2 (configuration not stated),"inconclusive: 31.6 µM [inhibitor, single point]",
CCOc1ccc(C(=O)C(C)OC(=O)C2CCN(c3ccc(C(F)(F)F)cn3)CC2)cc1 (configuration not stated),"inconclusive: 8.91 µM [inhibitor, partial curve]",
COc1ccc(OC)c2sc(NC(=O)c3ccc(S(=O)(=O)N(C)C)cc3)nc12,"inconclusive: 12.6 µM [inhibitor, partial curve]",
Cc1ccc(Oc2nc(-c3ccccc3)ncc2S(=O)(=O)c2ccc(C)cc2)cc1,active: 5.62 µM,
O=C(N/N=C/c1ccsc1)c1c[nH]c2ccccc12,,inactive: 28.4%
Cn1c(/C=C/c2ccc(Br)cc2)c([N+](=O)[O-])c(=O)n(C)c1=O,"inconclusive: 31.6 µM [inhibitor, single point]",
COc1ccc(N2CCN(Cc3nc4c(c(=O)[nH]c(=O)n4C)n3CC(C)=O)CC2)cc1,,inactive: 8.72%
CCc1ccc(NC(=O)CNC(=O)c2nn(-c3ccc(OC)cc3)c(=O)c3ccccc23)cc1,"inconclusive: 2.82 µM [inhibitor, partial curve]",
CC(C)CCc1noc(CN2CCC(CCN3CCCC3=O)CC2)n1,"inconclusive: 1.26 µM [inhibitor, partial curve, poor fit]",
CCCCCn1c(=O)[nH]c2cc(C(=O)N3CCN(c4ccc(F)cc4)CC3)ccc2c1=O,"inconclusive: 3.55 µM [inhibitor, full curve, poor fit]",
O=S(=O)(NCC(Nc1ccccc1)c1ccccc1)c1ccc(Cl)cc1 (configuration not stated),"inconclusive: 14.1 µM [inhibitor, single point]",
CCCCCCCCCn1c2c(c(=N)c3c1CCC3)CCCC2,active: 3.16 µM,
CS(=O)(=O)N(CCc1ccccc1)CC(=O)N1CCN(Cc2ccccc2)CC1,"inconclusive: 12.6 µM [inhibitor, single point]",
O=C(Nc1cccc(S(=O)(=O)NCc2ccco2)c1)c1cccc(Cl)c1,"inconclusive: 3.16 µM [inhibitor, partial curve]",
CNC(=O)c1csc(-c2cccs2)n1,,inactive: 12.4%
Cc1nc2c(s1)sc1ccccc12,,inactive: -5.18%
O=c1cc(N/N=C/c2ccccc2)[nH]c(=O)[nH]1,,inactive: 14.5%
Cc1noc(C)c1NC(=O)N(C)C[C@H]1Oc2ccc(NC(=O)Cc3ccccc3)cc2C(=O)N([C@H](C)CO)C[C@@H]1C,"inconclusive: 5.62 µM [inhibitor, single point]",

SMILES,Potency,"activity change, negative = inhibition"
CCN(CC)CCCN(Cc1cc2cc(OC)ccc2[nH]c1=O)C(=O)Nc1ccc(F)cc1,"inconclusive: 31.6 µM [inhibitor, single point]",
COc1cc(Cl)c(C)cc1NC(=O)CSC,"inconclusive: 31.6 µM [inhibitor, single point]",
CC(C)(C)Sc1ccc2nc3c(n2c1)CCCC3,"inconclusive: 22.4 µM [inhibitor, single point]",
CC(=O)Nc1ccc(Nc2cc(C)nc3c(-c4ccc(Cl)cc4)c(C)nn23)cc1,"inconclusive: 1.58 µM [inhibitor, full curve, poor fit]",
COc1cc(OC)cc(C(=O)NCc2cccnc2)c1,,inactive: -10%
Cc1ccc(NC(=O)NCc2c(C)nn(C)c2C)cc1Cl,"inconclusive: 15.8 µM [inhibitor, single point]",
Brc1ccccc1-c1nnc(CSc2nnnn2-c2ccccc2)o1,,inactive: -4.26%
Cc1ccc(C(=O)N2CCN(c3ccc(NC(=O)c4cccs4)cc3)CC2)cc1,"inconclusive: 11.2 µM [inhibitor, single point]",
COc1ccc(OC)c(CNc2nc3ccccc3n2CCN2CCCCC2)c1,active: 11.2 µM,
CCOc1ccc(N=C2NC(=O)S/C2=C\c2ccc(N(C)C)cc2)cc1,"inconclusive: 11.2 µM [inhibitor, single point]",
CCN(c1ccccc1)S(=O)(=O)c1cc(C(=O)NCc2ccco2)ccc1C,"inconclusive: 11.2 µM [inhibitor, single point]",
CCSc1nc(C)nc2sc(C)c(C)c12,,inactive: -6.42%
COC(=O)c1cc(Cl)cc2c(C)c(C3(O)CCCCC3)[nH]c12,active: 8.91 µM,
COc1cccc(-c2nn(-c3ccccc3)cc2/C=C(\C#N)C(=O)NCCCn2ccnc2)c1,"inconclusive: 3.16 µM [inhibitor, full curve]",
Cc1ccc(-n2c(N)c(C(=O)NCc3ccco3)sc2=S)cc1,"inconclusive: 10 µM [inhibitor, partial curve]",
O=[N+]([O-])c1cc(-c2nnc(N3CCOCC3)c3ccccc23)ccc1N1CCOCC1,"inconclusive: 31.6 µM [inhibitor, single point]",
CC(=O)c1sc(NC(=O)C=C(C)C)nc1C,,inactive: 10.2%
Cc1cc(SCC(=O)c2ccc(O)c(O)c2)n2nc(C)c(-c3ccccc3)c2n1,active: 11.2 µM,
Cc1ccc(/C=C2/NC(=O)N(Cc3ccccc3)C2=O)s1,,inactive: -32%
O=C(NNC(=O)c1ccccc1F)c1ccc2[nH]c(=O)c(=O)[nH]c2c1,,inactive: 23.4%
CCOC(=O)c1c(-c2ccc(C)o2)csc1NC(=O)CN1CCN(CC)CC1,"inconclusive: 3.16 µM [inhibitor, full curve] and inconclusive: 501 nM [inhibitor, full curve, poor fit]",
Cc1ccc2[nH]c3c(c2c1)CN(C(=O)CN1CCN(c2ccccn2)CC1)CC3,"inconclusive: 10 µM [inhibitor, partial curve]",
CCn1c(=O)cc(SCC(=O)N2CCN(Cc3ccc4c(c3)OCO4)CC2)c2ccccc21,"inconclusive: 31.6 µM [inhibitor, single point]",
Cc1nc2c(C(=O)N3CCC4(CC3)OCCO4)cnn2c(C)c1Cc1cccc(Cl)c1,"inconclusive: 15.8 µM [inhibitor, single point]",
